This is one part of the list. Values were computed here from the reads of four pooled replicates and scatter widely.

In the assay the target is T1, Pho4 (S. cerevisiae) (UniProt P07270).
T1 sequence: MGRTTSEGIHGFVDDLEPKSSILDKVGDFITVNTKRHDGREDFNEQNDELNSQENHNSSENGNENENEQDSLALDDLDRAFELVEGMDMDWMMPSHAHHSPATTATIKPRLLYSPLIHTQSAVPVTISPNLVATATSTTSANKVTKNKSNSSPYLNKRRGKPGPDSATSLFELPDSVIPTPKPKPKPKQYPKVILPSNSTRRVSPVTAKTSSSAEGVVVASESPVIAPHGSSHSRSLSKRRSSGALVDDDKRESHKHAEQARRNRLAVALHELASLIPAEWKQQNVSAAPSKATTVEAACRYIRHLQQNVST
Description: relative binding free energy (BET-seq); higher = weaker binding. The conditions noted are these: reference: library average.
On to TGGTGCACGTGATGAG, for which the “relative binding free energy” value was 0.02 kcal/mol.

For CGCGGCACGTGGGCGG, the “relative binding free energy” value is -0.26 kcal/mol.

As to GTTGGCACGTGAGTAA, the “relative binding free energy” value was found to be 0.11 kcal/mol.

Take TAGATCACGTGGGACG: the “relative binding free energy” value is 0.19 kcal/mol. On to GGTGACACGTGCAGTG, for which the “relative binding free energy” value is -0.02 kcal/mol. In the case of TGGGACACGTGGATGA, the “relative binding free energy” value was determined as 0.08 kcal/mol. In the case of TGTACCACGTGTTGAG, the “relative binding free energy” value is -0.08 kcal/mol. ATTAGCACGTGAGCTT: the “relative binding free energy” value is 0.24 kcal/mol.

TCGTGCACGTGATTTT: the “relative binding free energy” value came out at 0.18 kcal/mol.

In the case of TTGGACACGTGTGGTT, the “relative binding free energy” value was determined as 0.12 kcal/mol. For TGGGTCACGTGTGCCA, the “relative binding free energy” value turned out to be 0.06 kcal/mol.

Consider TTATTCACGTGGCTAT, for which the “relative binding free energy” value was 0.4 kcal/mol.

GGGATCACGTGTGTCA: the “relative binding free energy” value was 0.2 kcal/mol. In the case of GTGGGCACGTGTGAAA, the “relative binding free energy” value came to 0.12 kcal/mol. The value for GCAAGCACGTGGTTGG was -0.09 kcal/mol.

In the case of AGCGTCACGTGAGGGC, the “relative binding free energy” value turned out to be 0.19 kcal/mol. For the sequence TGATTCACGTGTATTG, the “relative binding free energy” value amounted to 0.17 kcal/mol. As for ACGTGCACGTGTGATG, the “relative binding free energy” value was -0.01 kcal/mol. As to GAAAACACGTGTATGG, the “relative binding free energy” value is 0.13 kcal/mol. TTGAACACGTGGTGGT: the “relative binding free energy” value came to 0.02 kcal/mol.

Turning to TTTTACACGTGTCTGA, the “relative binding free energy” value stood at 0.12 kcal/mol. TTCGACACGTGGTGGG: the “relative binding free energy” value was -0.02 kcal/mol.

For GACTTCACGTGGTGAT, the “relative binding free energy” value amounted to 0.34 kcal/mol. The value for GCGGTCACGTGCTGGG was 0.08 kcal/mol; that for GGTGACACGTGTATCG was 0.06 kcal/mol. On to GGTACCACGTGATGTG, for which the “relative binding free energy” value was found to be 0.12 kcal/mol. As for TAGTACACGTGGGAGC, the “relative binding free energy” value is 0 kcal/mol. In the case of TTGTGCACGTGGCGCG it was -0.24 kcal/mol; in that of CATCTCACGTGTGTGT, 0.24 kcal/mol; in that of TAGGTCACGTGTTGGG, 0.14 kcal/mol. Take TAGTTCACGTGGCAGT: the “relative binding free energy” value is 0.26 kcal/mol. Take GGAAACACGTGTAGGG: the “relative binding free energy” value came to 0.02 kcal/mol. In the case of GGGGACACGTGGTGAA it was 0 kcal/mol; in that of GAATGCACGTGCGGGA, 0.08 kcal/mol. TATCGCACGTGGGTGA: the “relative binding free energy” value was -0.24 kcal/mol. As to TGGGGCACGTGACGTC, the “relative binding free energy” value was 0.08 kcal/mol. Regarding GGTGACACGTGGAGAG, the “relative binding free energy” value is 0.06 kcal/mol. On to TAGGTCACGTGGGTCC, for which the “relative binding free energy” value is 0.08 kcal/mol.

For TCAGTCACGTGTTCTG, the “relative binding free energy” value is 0.27 kcal/mol. GATATCACGTGTGTTT: the “relative binding free energy” value was 0.29 kcal/mol. Regarding GTTCACACGTGTGTAG, the “relative binding free energy” value was 0.16 kcal/mol.

With GGTATCACGTGGGAGG, the “relative binding free energy” value is -0.01 kcal/mol.

On to TCATTCACGTGCGGGG, for which the “relative binding free energy” value was determined as 0.27 kcal/mol.

For GATCGCACGTGGGTGT, the “relative binding free energy” value was -0.09 kcal/mol.

Take GTGTGCACGTGCGGTC: the “relative binding free energy” value worked out at 0.01 kcal/mol. As to TGTCTCACGTGGGTAT, the “relative binding free energy” value stood at 0.15 kcal/mol. Consider GACGGCACGTGGGTTT, for which the “relative binding free energy” value was -0.04 kcal/mol.

As for AGTGGCACGTGAATAA, the “relative binding free energy” value was found to be 0.25 kcal/mol. For AATAACACGTGAATGG, the “relative binding free energy” value was determined as 0.29 kcal/mol.

As for CTCGTCACGTGAGTGT, the “relative binding free energy” value turned out to be 0.29 kcal/mol. For the sequence TAGGGCACGTGTTTGC, the “relative binding free energy” value was -0.13 kcal/mol. As for GTTCACACGTGATTGT, the “relative binding free energy” value is 0.15 kcal/mol. Take CTAAGCACGTGGGGGC: the “relative binding free energy” value is -0.26 kcal/mol.

As to TGTTACACGTGGCGCG, the “relative binding free energy” value turned out to be 0.04 kcal/mol. For GAGTTCACGTGTTTGT, the “relative binding free energy” value was determined as 0.34 kcal/mol. In the case of CGGTTCACGTGTAGGC it was 0.26 kcal/mol; in that of GGAAGCACGTGGGCGT, -0.29 kcal/mol; in that of GATTTCACGTGCTGGT, 0.28 kcal/mol.

Take TAAATCACGTGGAAGG: the “relative binding free energy” value came out at 0.22 kcal/mol. With AGTCACACGTGTTGTT, the “relative binding free energy” value is -0.05 kcal/mol. Regarding GGATTCACGTGAATGT, the “relative binding free energy” value is 0.42 kcal/mol. Take GGAAGCACGTGGGGGG: the “relative binding free energy” value is -0.18 kcal/mol. In the case of CTGCGCACGTGGGCGG, the “relative binding free energy” value is -0.26 kcal/mol. TTTGGCACGTGGCAGT: the “relative binding free energy” value is -0.27 kcal/mol. As for TTAATCACGTGGAATG, the “relative binding free energy” value came out at 0.17 kcal/mol. Take TGTGGCACGTGTAAGC: the “relative binding free energy” value is -0.06 kcal/mol. For CGTTACACGTGTTGGT, the “relative binding free energy” value worked out at 0.09 kcal/mol.

With GTCAGCACGTGGTTGA, the “relative binding free energy” value is -0.08 kcal/mol. Turning to AGGGACACGTGGACAG, the “relative binding free energy” value was 0.02 kcal/mol.

Consider TTCTACACGTGGGGCT, for which the “relative binding free energy” value is 0.12 kcal/mol.

As to ATTGACACGTGGATGC, the “relative binding free energy” value was 0.06 kcal/mol. TGACGCACGTGAGTGT: the “relative binding free energy” value was -0.01 kcal/mol. In the case of GGAGGCACGTGCGTAA it was -0.11 kcal/mol; in that of GGTCGCACGTGGCGGA, -0.14 kcal/mol. Take AGTATCACGTGCTAGG: the “relative binding free energy” value was found to be 0.12 kcal/mol. On to GGTCTCACGTGCGTTG, for which the “relative binding free energy” value came to 0.25 kcal/mol. On to TTATACACGTGCGGTA, for which the “relative binding free energy” value came out at 0 kcal/mol. In the case of TTGGACACGTGCGATG it was 0.06 kcal/mol. The value for TAGGGCACGTGTGTCG was 0 kcal/mol; that for CCTGGCACGTGTGGTT was -0.08 kcal/mol; that for TGTGGCACGTGTTTTG was -0.05 kcal/mol. In the case of TGAATCACGTGAGTGT, the “relative binding free energy” value turned out to be 0.35 kcal/mol.

With AGTGTCACGTGGATTC, the “relative binding free energy” value came out at 0.01 kcal/mol. Turning to GGGAACACGTGAAGTA, the “relative binding free energy” value turned out to be 0.46 kcal/mol. In the case of TTGGTCACGTGGGCTT it was 0.08 kcal/mol. ATTGTCACGTGTCTAG: the “relative binding free energy” value amounted to 0.11 kcal/mol.

Consider GTGCGCACGTGCGGGT, for which the “relative binding free energy” value was -0.13 kcal/mol. Consider TAAGGCACGTGGGTTA, for which the “relative binding free energy” value was -0.19 kcal/mol. The value for TGGTCCACGTGGGGCA was -0.19 kcal/mol. In the case of CGAATCACGTGTTATG, the “relative binding free energy” value came to 0.25 kcal/mol. TTGCGCACGTGTTCAT: the “relative binding free energy” value is -0.01 kcal/mol.

As for ATAGTCACGTGGTCTT, the “relative binding free energy” value was -0.01 kcal/mol.

For TATGACACGTGTAAGA, the “relative binding free energy” value is 0.13 kcal/mol. In the case of GTCTTCACGTGCGGGT, the “relative binding free energy” value worked out at 0.3 kcal/mol.

As for AGTAACACGTGAGTAG, the “relative binding free energy” value worked out at 0.31 kcal/mol. As for CGGTACACGTGAATGT, the “relative binding free energy” value came to 0.26 kcal/mol.

Regarding TTGGACACGTGAAAGA, the “relative binding free energy” value is 0.36 kcal/mol. The value for TTTCTCACGTGTTGCT was 0.15 kcal/mol; that for CTTGTCACGTGATGTT was 0.12 kcal/mol; that for ACTTTCACGTGTTAAG was 0.29 kcal/mol. Regarding TTGATCACGTGTCGCG, the “relative binding free energy” value is 0.13 kcal/mol. In the case of TTTAACACGTGTCTTT it was 0.01 kcal/mol; in that of CGTGTCACGTGATTTA, 0.13 kcal/mol.

Consider TTGAGCACGTGTCAGG, for which the “relative binding free energy” value is -0.07 kcal/mol. For the sequence TACTACACGTGGGTAG, the “relative binding free energy” value was -0.03 kcal/mol.

AGTATCACGTGTCCGG: the “relative binding free energy” value amounted to 0.22 kcal/mol. On to CTGTTCACGTGTGATG, for which the “relative binding free energy” value was 0.2 kcal/mol. Take TCTAGCACGTGTGTTA: the “relative binding free energy” value is -0.03 kcal/mol. The value for GTGTTCACGTGTAGCG was 0.27 kcal/mol.

On to GTGTTCACGTGTCAGG, for which the “relative binding free energy” value was determined as 0.21 kcal/mol. Consider GAGGACACGTGGAGAT, for which the “relative binding free energy” value came to 0.17 kcal/mol. Turning to GGTTCCACGTGATTGG, the “relative binding free energy” value is 0.17 kcal/mol. On to ATTATCACGTGAGGCC, for which the “relative binding free energy” value turned out to be 0.45 kcal/mol.

Take GGCTGCACGTGGATGT: the “relative binding free energy” value was determined as 0.14 kcal/mol.

TATTGCACGTGCAGAG: the “relative binding free energy” value is -0.04 kcal/mol.

For the origin of these results see the BET-seq Pho4 binding data (Le et al. 2018).
